Results published in PubChem BioAssay (NCATS).
Inconclusive results, whose numbers are uncertain, are shown with a selection of clear calls. For some assays here: Where the call is inconclusive, the potency comes from a doubtful curve fit. Active and inactive are the calls of the source. Unless noted, the call rests on the fitted dose curve; in most records, active means well fitted curve in the direction sought with a large enough effect; inconclusive means small, poorly fitted or top-dose-only effect, or another doubt; inactive means no such curve, though single readings can be large; an effect the other way counts as inactive or inconclusive.

Experiments:
[1] = P-glycoprotein substrates identified in KB-8-5-11 adenocarcinoma cell line, qHTS therapeutic library screen (AID 1346987); details: activity change, negative = cytotoxicity: at 44.5 µM (top of the series); further: nearly all actives have a fitted effect of over 65% in size
Procedure, shortened: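 Steps: plate 500 KB-8-5-11 cells/well in DMEM + 10% FCS (colchicine removed); pin compounds in dose-response; incubate 72 h, 37 degree C, 5% CO2; add CellTiter-Glo, 5 min; read luminescence.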

[2] = Primary qHTS for inhibitors of nuclear receptor binding SET domain protein 2 (NSD2) in an isogenic RCH-ACV NSD2 p.E1099K mutant (9B) (AID 1645876); details: activity change, negative = viability loss: at 44.9 µM (top of the series) unless noted; further: nearly all actives have a fitted effect of over 70% in size
PA-1 = assay: Primary qHTS to identify gynecologic anti-cancer compounds using libraries of approved drugs and bioactive compounds (AID 1345084); details: Gynecologic cancer cell panel viability, ATPlite luminescence, 48 h; series mostly up to 57.5 µM; further: nearly all actives have a fitted effect of over 55% in size; further: potency means the concentration at half of the fitted maximal effect
Procedure, shortened: (§1)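 In this quantitative HTS, cell killing is estimated from loss of ATP-dependent luciferase light. Cells see five compound concentrations over a 48 h exposure.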

[3] = S16 Schwann cell PMP22 intronic element beta-lactamase assay (AID 624044; calls by dose curve; further: nearly all actives have a fitted effect of over 15% in size); details: S16 rat Schwann cells, PMP22 element beta-lactamase FRET, 24 h; series mostly up to 38.3 µM
Procedure, shortened: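 Rat S16 Schwann cells with beta-Lac driven by a PMP22 intronic element, compound-treated 24 h at 37 °C. LiveBLAzer FRET B/G read: 460 nm normalized to potassium clavulanate vs DMSO; 535 nm FRET as viability; concentration-effect curves classified.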

[4] = biological target: Phospholipid hydroperoxide glutathione peroxidase GPX4 (Homo sapiens) (UniProt P36969); assay: Primary qHTS Assay for Inhibitors of Recombinant Selenoprotein Glutathione Peroxidase 4 (GPX4) (AID 1845192); details: activity change, negative = inhibition: at 50 µM (top of the series) unless noted; further: potency means the concentration at half of the fitted maximal effect; nearly all actives have a fitted effect of over 65% in size
Procedure, shortened: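 NADPH consumption, followed by fluorescence at 340/450 nm between 0 and 15 min, reports GPX4 activity via coupled glutathione reductase (100 nM). Enzyme 200 nM was pre-exposed to compound 30 min; 0.5 mM cumene hydroperoxide and 1 mM GSH served as substrates.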

[5] = Primary redox qHTS assay for identification of artifact compounds. (AID 1845223); further: potency means the concentration at half of the fitted maximal effect
Procedure, shortened: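 Amplex Red (25 uM) and HRP (250 mU/mL) in HBSS, with compounds for 15 min, then 250 uM DTT for 30 min, room temperature, dark. Fluorescence 525/598 nm read; normalized to DMSO and 10 uM DA3003; Hill fit.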

SKOV3 = assay: Primary qHTS to identify gynecologic anti-cancer compounds using libraries of approved drugs and bioactive compounds (AID 1345084); details: Gynecologic cancer cell panel viability, ATPlite luminescence, 48 h; series mostly up to 57.5 µM; further: nearly all actives have a fitted effect of over 55% in size; further: potency means the concentration at half of the fitted maximal effect
Procedure, shortened: as §1

7G8 = assay: qHTS profiling for inhibitors of Plasmodium falciparum proliferation (AID 504749); further: nearly all actives have a fitted effect of over 60% in size; details: P. falciparum in erythrocytes, SYBR Green DNA, 72 h; series mostly up to 28.7 µM
Procedure, shortened: (§2)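 Infected RBCs, 0.3% parasitemia/2.5% Hct final; cpd 72 h, 37 C, 5% CO2; lysis buffer with saponin/triton/SYBR Green I, o/n RT dark; FI 485/535; norm. to artemisinin (0.29 uM) and DMSO.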

CP192 = assay: as above; details: P. falciparum in erythrocytes, SYBR Green DNA, 72 h; series mostly up to 28.7 µM
Procedure, shortened: as §2

CP305 = assay: as above; details: P. falciparum in erythrocytes, SYBR Green DNA, 72 h; series mostly up to 28.7 µM
Procedure, shortened: as §2

DIV30 = assay: as above; details: P. falciparum in erythrocytes, SYBR Green DNA, 72 h; series mostly up to 28.7 µM
Procedure, shortened: as §2

P94_40 = assay: as above; details: P. falciparum in erythrocytes, SYBR Green DNA, 72 h; series mostly up to 28.7 µM
Procedure, shortened: as §2

[6] = system: Zika virus NS2B-NS3 protease (unlinked complex); assay: Primary screen GU Rhodamine qHTS for Zika virus inhibitors: Unlinked NS2B-NS3 protease assay (AID 1347159); details: Recombinant ZIKV NS2B-NS3 protease, Rhodamine110 substrate fluorescence; activity change, negative = inhibition: at 107 µM (top of the series); further: potency means the concentration at half of the fitted maximal effect; nearly all actives have a fitted effect of over 60% in size
Procedure, shortened: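 A qHTS format was used, with compound concentrations ranging up to 114 microM. Each compound was preincubated with 25 nM NS2B-NS3 protease, and the substrate was then added at 1.5 microM. Curves were fitted with a 4-parameter Hill model.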

[7] = Primary qHTS for inhibitors of nuclear receptor binding SET domain protein 2 (NSD2) in an RCH-ACV wild type WT cells (2C) (AID 1645877); details: activity change, negative = cell killing: at 44.9 µM (top of the series) unless noted; further: potency means the concentration at half of the fitted maximal effect; nearly all actives have a fitted effect of over 70% in size
[8] = qHTS of pediatric cancer cell lines to identify multiple opportunities for drug repurposing: Primary screen for TC32 cells (AID 1347089); further: nearly all actives have a fitted effect of over 60% in size
Procedure, shortened: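 Measured quantity: luminescence from CellTiter-Glo, reflecting metabolically active TC32 cells following 48 h of compound. Curves came straight from multi-point titrations, with 8 or 11 points in primary and 11 in confirmatory screening.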

[9] = qHTS of pediatric cancer cell lines to identify multiple opportunities for drug repurposing: Primary screen for SK-N-SH cells (AID 1347098);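 further: DMSO served as neutral control and bortezomib at 2.3 µM as positive control; nearly all actives have a fitted effect of over 65% in size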
Procedure, shortened: (§3)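 Cells (500-1,000/well) rested 5 h, then received compounds for 48 h; metabolically active cells were measured by CellTiter-Glo luminescence. Final concentrations spanned up to 46 µM (MIPE, 11-point) or 0.59 nM-46 µM (NPC, 8-point) in primary screens, 11-point in follow-ups.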

[10] = qHTS of pediatric cancer cell lines to identify multiple opportunities for drug repurposing: Primary screen for OHS-50 cells (AID 1347103); details: OHS-50 osteosarcoma viability, CellTiter-Glo luminescence, 48 h; activity change, negative = cytotoxic: at 57.3 µM (top of the series); further: nearly all actives have a fitted effect of over 40% in size
Procedure, shortened: as §3

[11] = qHTS of pediatric cancer cell lines to identify multiple opportunities for drug repurposing: Primary screen for RD cells (AID 1347104); further: nearly all actives have a fitted effect of over 55% in size
Procedure, shortened: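 500-1,000 cells/well; 5 h pre-incubation 37 °C/5% CO2; compound pinned; 48 h; CellTiter-Glo, 15 min RT; luminescence. MIPE 11-pt from 0.78 nM, NPC 8-pt from 0.59 nM final. Bortezomib 2.3 µM final as positive control.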

[12] = Primary qHTS for small molecule stabilizers of the endoplasmic reticulum resident proteome: Secreted ER Calcium Modulated Protein (SERCaMP) assay (AID 1508630); details: SH-SY5Y GLuc-SERCaMP (Gaussia luciferase released on ER calcium loss) secretion, thapsigargin, luminescence; activity change, negative = inhibition: at 38.4 µM (top of the series) unless noted; further: potency means the concentration at half of the fitted maximal effect
Procedure, shortened: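 GLuc-SERCaMP-expressing SH-SY5Y cells, pretreated 16 h with compound, are challenged with thapsigargin to empty ER calcium stores; after 4 h, coelenterazine is added directly to the medium and luminescence is imaged.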

[13] = A High-Content qHTS Against Drug Library for the Identification of Small Molecules that Inhibit DYT1 Early Onset Primary Dystonia-Associated Cell Pathology (AID 1645839; calls by dose curve)
Procedure, shortened: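 In this high-content image screen, delE TorsinA mislocalization in inducible Flp-In 293 cells is scored as %pathology, with cell count serving as the counterscreen. Compound exposure lasts 48 h under tetracycline induction in reduced-serum medium.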

Measured: Potency
Tags describe the fitted curve by direction and shape.

Sequence of UniProt P36969 (P36969 whole entry, looked up): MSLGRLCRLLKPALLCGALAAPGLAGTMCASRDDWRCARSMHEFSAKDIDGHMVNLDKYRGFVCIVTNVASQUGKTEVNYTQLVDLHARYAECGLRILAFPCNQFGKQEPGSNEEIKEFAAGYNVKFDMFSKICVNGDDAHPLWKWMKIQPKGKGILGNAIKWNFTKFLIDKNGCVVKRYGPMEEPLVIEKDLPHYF

CC(C)C1(O)NC(=O)C(CC2(O)c3ccccc3N3C(=O)C(C)(C)NC32)n2c1nc1ccccc1c2=O (stereo unspecified)
inactive: [1] | [2]
inconclusive: PA-1 = 17.8 µM [rising, partial curve, poor fit]

CC1(C)S[C@@H]2[C@H](NC(=O)[C@H](NC(=O)N3CCN(S(C)(=O)=O)C3=O)c3ccccc3)C(=O)N2[C@H]1C(=O)O
inactive: [3] | [2] | PA-1 | 7G8 | CP192 | CP305 | DIV30 | P94_40
inconclusive: [4] 11.2 µM [inhibitor, partial curve] | [5] 16.8 µM [activator, partial curve, poor fit] | SKOV3 = 39.8 µM [rising, single point]

C=C(C(=O)O)C1CC2=C(C)CCCC2(C)C[C@@H]1O (stereo partly specified)
inconclusive: [6] 35.5 µM [inhibitor, full curve, poor fit] | [7] 16.3 µM [inhibitor, single point] | PA-1 = 12.6 µM [rising, partial curve, poor fit]
inactive: [1]

CO/N=C(\C(=O)O)c1csc(NC(=O)CCl)n1
inactive: [8] | [9] | [10] | [11] | [13] | [2] | PA-1
inconclusive: [12] 10 µM [inhibitor, partial curve, poor fit]
